Assay results taken from the supplement of paper PMC9542798.

Legend:
Assay in all cases: minimum inhibitory concentration
Streptomycin = compound: CN[C@@H]1[C@H](O[C@H]2[C@H](O[C@H]3[C@H](O)[C@@H](O)[C@H](N=C(N)N)[C@@H](O)[C@@H]3N=C(N)N)O[C@@H](C)[C@]2(O)C=O)O[C@@H](CO)[C@H](O)[C@H]1O [Streptomycin]
Protocol: (§1)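 Broth microdilution MIC per ISO 10932 on precoated VetMIC Lact-1 plates (tylosin, vancomycin and ampicillin plates prepared manually) against lactic acid bacteria and bifidobacteria isolates. Plates were read visually after 48 h anaerobic incubation (bifidobacteria 72 h; enterococci and staphylococci 24 h aerobic) at species-specific temperatures of 30 or 37 °C. Values prefixed with < or > are outside the tested dilution range.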

Chloramphenicol = compound: O=C(N[C@H](CO)[C@H](O)c1ccc([N+](=O)[O-])cc1)C(Cl)Cl [Chloramphenicol]
Protocol: as §1

Gentamicin = compound: CNC(C)C1CCC(N)C(OC2C(N)CC(N)C(OC3OCC(C)(O)C(NC)C3O)C2O)O1 [Gentamicin]
Protocol: as §1

Neomycin = compound: NC[C@@H]1O[C@H](O[C@H]2[C@@H](O)[C@H](O[C@@H]3[C@@H](O)[C@H](N)C[C@H](N)[C@H]3O[C@H]3O[C@H](CN)[C@@H](O)[C@H](O)[C@H]3N)O[C@@H]2CO)[C@H](N)[C@@H](O)[C@@H]1O [Neomycin]
Protocol: as §1

Erythromycin = compound: CC[C@H]1OC(=O)[C@H](C)[C@@H](O[C@H]2C[C@@](C)(OC)[C@@H](O)[C@H](C)O2)[C@H](C)[C@@H](O[C@@H]2O[C@H](C)C[C@H](N(C)C)[C@H]2O)[C@](C)(O)C[C@@H](C)C(=O)[C@H](C)[C@@H](O)[C@]1(C)O [Erythromycin]
Protocol: as §1

Tetracycline = compound: CN(C)[C@@H]1C(O)=C(C(N)=O)C(=O)[C@@]2(O)C(O)=C3C(=O)c4c(O)cccc4[C@@](C)(O)[C@H]3C[C@@H]12 [Tetracycline]
Protocol: as §1

Ampicillin = compound: CC1(C)S[C@@H]2[C@H](NC(=O)[C@H](N)c3ccccc3)C(=O)N2[C@H]1C(=O)O [Ampicillin]
Protocol: as §1

Kanamycin = compound: NC[C@H]1O[C@H](O[C@H]2[C@H](O)[C@@H](O[C@H]3O[C@H](CO)[C@@H](O)[C@H](N)[C@H]3O)[C@H](N)C[C@@H]2N)[C@H](O)[C@@H](O)[C@@H]1O [Kanamycin]
Protocol: as §1

Clindamycin = compound: CCC[C@@H]1C[C@@H](C(=O)N[C@@H]([C@H]2O[C@H](SC)[C@H](O)[C@@H](O)[C@H]2O)[C@H](C)Cl)N(C)C1 [Clindamycin]
Protocol: as §1

Tylosin = compound: CC[C@H]1OC(=O)C[C@@H](O)[C@H](C)[C@@H](O[C@@H]2O[C@H](C)[C@@H](O[C@H]3C[C@@](C)(O)[C@@H](O)[C@H](C)O3)[C@H](N(C)C)[C@H]2O)[C@@H](CC=O)C[C@@H](C)C(=O)/C=C/C(C)=C/[C@@H]1CO[C@@H]1O[C@H](C)[C@@H](O)[C@@H](OC)[C@H]1OC [Tylosin]
Protocol: as §1

Vancomycin = compound: CN[C@H](CC(C)C)C(=O)N[C@H]1C(=O)N[C@@H](CC(N)=O)C(=O)N[C@H]2C(=O)N[C@H]3C(=O)N[C@H](C(=O)N[C@H](C(=O)O)c4cc(O)cc(O)c4-c4cc3ccc4O)[C@H](O)c3ccc(c(Cl)c3)Oc3cc2cc(c3O[C@@H]2O[C@H](CO)[C@@H](O)[C@H](O)[C@H]2O[C@H]2C[C@](C)(N)[C@H](O)[C@H](C)O2)Oc2ccc(cc2Cl)[C@H]1O [Vancomycin]
Protocol: as §1
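Further: isolates derived from commercial starter, protective, probiotic or feed-additive cultures, from fermented products, from human gut mucosa or feces, and from human milk or colostrum.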

Row | Test System | minimum inhibitory concentration (Streptomycin) | minimum inhibitory concentration (Chloramphenicol) | minimum inhibitory concentration (Gentamicin) | minimum inhibitory concentration (Neomycin) | minimum inhibitory concentration (Erythromycin) | minimum inhibitory concentration (Tetracycline) | minimum inhibitory concentration (Ampicillin) | minimum inhibitory concentration (Kanamycin) | minimum inhibitory concentration (Clindamycin) | minimum inhibitory concentration (Tylosin) | minimum inhibitory concentration (Vancomycin)
1 | Enterococcus durans IM807 (strain group: probiotic strains) | 128 µg/mL | 8 µg/mL | 64 µg/mL | 32 µg/mL | > 8 µg/mL | 0.5 µg/mL | 4 µg/mL | 1020 µg/mL | > 16 µg/mL | 8 µg/mL | 1 µg/mL
2 | Enterococcus durans IM1303 (strain group: non-starter strains) | 32 µg/mL | 8 µg/mL | 4 µg/mL | 4 µg/mL | 0.12 µg/mL | 0.5 µg/mL | 1 µg/mL | 16 µg/mL | 0.25 µg/mL | 1 µg/mL | 0.5 µg/mL
3 | Enterococcus durans IM1304 (strain group: non-starter strains) | 32 µg/mL | 8 µg/mL | 8 µg/mL | 8 µg/mL | 0.12 µg/mL | 0.5 µg/mL | 1 µg/mL | 16 µg/mL | 0.25 µg/mL | 1 µg/mL | 0.5 µg/mL
4 | Enterococcus durans IM1317 (strain group: non-starter strains) | 32 µg/mL | 8 µg/mL | 8 µg/mL | 8 µg/mL | 0.25 µg/mL | 0.5 µg/mL | 2 µg/mL | 16 µg/mL | 0.25 µg/mL | 1 µg/mL | 0.5 µg/mL
5 | Enterococcus faecalis IM1300 (strain group: non-starter strains) | 128 µg/mL | 8 µg/mL | 16 µg/mL | 128 µg/mL | 1 µg/mL | 1 µg/mL | 2 µg/mL | 64 µg/mL | 16 µg/mL | 2 µg/mL | 1 µg/mL
6 | Enterococcus faecalis IM1310 (strain group: non-starter strains) | 128 µg/mL | 8 µg/mL | 64 µg/mL | 64 µg/mL | 2 µg/mL | 0.5 µg/mL | 1 µg/mL | 128 µg/mL | 2 µg/mL | 1 µg/mL | 1 µg/mL
7 | Enterococcus faecalis IM1311 (strain group: non-starter strains) | 128 µg/mL | 8 µg/mL | 32 µg/mL | 128 µg/mL | 2 µg/mL | 0.5 µg/mL | 1 µg/mL | 128 µg/mL | 2 µg/mL | 2 µg/mL | 1 µg/mL
8 | Enterococcus faecalis IM1316 (strain group: non-starter strains) | 128 µg/mL | 4 µg/mL | 16 µg/mL | 64 µg/mL | 1 µg/mL | 0.5 µg/mL | 2 µg/mL | 64 µg/mL | 2 µg/mL | 1 µg/mL | 2 µg/mL
9 | Enterococcus faecalis IM1318 (strain group: non-starter strains) | 128 µg/mL | 8 µg/mL | 64 µg/mL | 128 µg/mL | 1 µg/mL | 1 µg/mL | 2 µg/mL | 128 µg/mL | > 16 µg/mL | 1 µg/mL | 2 µg/mL
10 | Enterococcus faecium IM312 (strain group: probiotic strains) | 32 µg/mL | 4 µg/mL | 8 µg/mL | 8 µg/mL | 8 µg/mL | 0.5 µg/mL | 1 µg/mL | 128 µg/mL | 0.5 µg/mL | 2 µg/mL | 1 µg/mL
11 | Enterococcus faecium IM314 (strain group: probiotic strains) | 64 µg/mL | 4 µg/mL | 16 µg/mL | 16 µg/mL | 8 µg/mL | 0.25 µg/mL | 2 µg/mL | 512 µg/mL | 4 µg/mL | 4 µg/mL | 1 µg/mL
12 | Enterococcus faecium IM1309 (strain group: non-starter strains) | 64 µg/mL | 4 µg/mL | 16 µg/mL | 8 µg/mL | 2 µg/mL | 0.5 µg/mL | 0.25 µg/mL | 128 µg/mL | 0.5 µg/mL | 1 µg/mL | 1 µg/mL
13 | Staphylococcus carnosus IM1451 (strain group: starter cultures) | 4 µg/mL | 4 µg/mL | < 0.5 µg/mL | < 0.5 µg/mL | 0.25 µg/mL | 0.25 µg/mL | 0.5 µg/mL | < 2 µg/mL | 0.25 µg/mL | 0.25 µg/mL | 0.5 µg/mL
14 | Staphylococcus carnosus IM1453 (strain group: starter cultures) | 2 µg/mL | 4 µg/mL | < 0.5 µg/mL | < 0.5 µg/mL | 0.5 µg/mL | 0.5 µg/mL | 0.5 µg/mL | < 2 µg/mL | 0.5 µg/mL | 0.5 µg/mL | < 0.25 µg/mL
15 | Staphylococcus carnosus IM1455 (strain group: starter cultures) | 4 µg/mL | 4 µg/mL | < 0.5 µg/mL | < 0.5 µg/mL | 0.5 µg/mL | 0.5 µg/mL | 0.5 µg/mL | < 2 µg/mL | 0.25 µg/mL | 0.5 µg/mL | < 0.25 µg/mL
16 | Staphylococcus carnosus IM1462 (strain group: protective cultures) | 4 µg/mL | 4 µg/mL | < 0.5 µg/mL | < 0.5 µg/mL | 0.5 µg/mL | 0.5 µg/mL | 0.5 µg/mL | < 2 µg/mL | 0.5 µg/mL | 1 µg/mL | 0.5 µg/mL
17 | Streptococcus thermophilus IM1414 (strain group: starter cultures) | 16 µg/mL | 2 µg/mL | 2 µg/mL | 4 µg/mL | 0.12 µg/mL | 0.5 µg/mL | 0.25 µg/mL | 32 µg/mL | 0.06 µg/mL | – | 0.5 µg/mL
18 | Streptococcus thermophilus IM1415 (strain group: starter cultures) | 4 µg/mL | 2 µg/mL | 1 µg/mL | 2 µg/mL | 0.06 µg/mL | 0.25 µg/mL | 0.125 µg/mL | 16 µg/mL | < 0.03 µg/mL | – | < 0.25 µg/mL
19 | Streptococcus thermophilus IM1416 (strain group: starter cultures) | 16 µg/mL | 2 µg/mL | 4 µg/mL | 8 µg/mL | 0.12 µg/mL | 0.5 µg/mL | 1 µg/mL | 64 µg/mL | 0.25 µg/mL | – | 1 µg/mL
20 | Streptococcus thermophilus IM1417 (strain group: starter cultures) | 4 µg/mL | 2 µg/mL | < 0.5 µg/mL | < 0.5 µg/mL | 0.03 µg/mL | 0.25 µg/mL | 0.125 µg/mL | < 2 µg/mL | < 0.03 µg/mL | – | < 0.25 µg/mL
21 | Streptococcus thermophilus IM1418 (strain group: starter cultures) | < 0.5 µg/mL | 2 µg/mL | < 0.5 µg/mL | < 0.5 µg/mL | < 0.016 µg/mL | 0.25 µg/mL | 0.063 µg/mL | < 2 µg/mL | < 0.03 µg/mL | – | < 0.25 µg/mL
22 | Streptococcus thermophilus IM1440 (strain group: starter cultures) | 16 µg/mL | 4 µg/mL | 4 µg/mL | 8 µg/mL | 0.25 µg/mL | 1 µg/mL | 0.25 µg/mL | 32 µg/mL | 0.06 µg/mL | – | 0.5 µg/mL
23 | Streptococcus thermophilus IM1447 (strain group: starter cultures) | 8 µg/mL | 2 µg/mL | 2 µg/mL | 4 µg/mL | 0.06 µg/mL | 0.5 µg/mL | 0.25 µg/mL | 16 µg/mL | < 0.03 µg/mL | – | < 0.25 µg/mL
